According to the supplement of paper PMC7266297:
Counter-ions that a name gives are not always drawn. The list shows a part of the results. Most values come without repeats; read them as rough.

Tested on: KB-3-1
Assay: growth inhibition relative to DMSO control (SRB); cervical cancer cells: KB-3-1 is the parent and KB-V1 overexpresses MDR1; SRB is the sulforhodamine B stain; higher = more growth inhibition
Conditions: 1 µM; 72 h
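Also: Read-out is SRB optical density at 490 nm, with the control being wells given 0.5% DMSO vehicle, and compound added one day after cells were plated.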

| SMILES | growth inhibition |
| --- | --- |
| CNC(=O)c1cc(COc2nnc(Nc3ccc(Cl)cc3)c3ccoc23)ccn1 [Telatinib] | < 0% |
| Cc1cc(C)nc(NS(=O)(=O)c2ccc(NC(=S)NC(=O)COc3ccc(Br)cc3Cl)cc2)n1 | 0.442% |
| CCc1c2c(nc3ccc(O)cc13)-c1cc3c(c(=O)n1C2)COC(=O)[C@]3(O)CC | 71.5% |
| CC(=O)OCC[N+](C)(C)C [Acetylcholine Chloride] | 46.6% |
| CCOc1nc2cccc(C(=O)OCc3oc(=O)oc3C)c2n1Cc1ccc(-c2ccccc2-c2noc(=O)[nH]2)cc1 [Azilsartan Medoxomil] | < 0% |
| C#Cc1cccc(Nc2ncnc3cc(OC)c(OCCCCCCC(=O)NO)cc23)c1 | 86.1% |
| CC(C)(Cc1ccc2ccccc2c1)NC[C@@H](O)COc1cccc(Cl)c1C#N | < 0% |
| CCOC(=O)c1ccc(N2NC(=O)C(=Cc3ccc([N+](=O)[O-])o3)C2=O)cc1 | 19.1% |
| COc1ccc2cc1Oc1ccc(cc1)C[C@H]1c3cc(c(OC)cc3CCN1C)Oc1c(OC)c(OC)cc3c1[C@H](C2)N(C)CC3 [Tetrandrine] | < 0% |
| O=C(Nc1cccc(C(F)(F)F)c1)Nc1cc(S(=O)(=O)NC2CC2)ccc1-c1ccsc1 | 5.96% |
| COc1cc(F)c(C(C)C)cc1-c1ccc(C(F)(F)F)cc1CN1C(=O)O[C@H](c2cc(C(F)(F)F)cc(C(F)(F)F)c2)[C@@H]1C [Anacetrapib (MK-0859)] | < 0% |
| CCC(=O)NCC[C@@H]1CCc2ccc3c(c21)CCO3 [Ramelteon] | 11.9% |
| COc1cc(OC)c(NC(=O)Nc2cc(C)on2)cc1Cl | 21.6% |
| CS(=O)(=O)c1cccc(CNc2nc(Nc3ccc4c(c3)CCC(=O)N4)ncc2C(F)(F)F)c1 | 41.9% |
| CC[C@H](c1ccc(O)cc1)[C@@H](CC)c1ccc(O)cc1 [Hexestrol] | 25.1% |
| CN(C)Cc1ccc(-c2nc3cccc4c3n2CCNC4=O)cc1 | < 0% |
| Cc1[nH]c(/C=C2\C(=O)Nc3ccc(S(=O)(=O)Cc4c(Cl)cccc4Cl)cc32)c(C)c1C(=O)N1CCC[C@@H]1CN1CCCC1 | 33.2% |
| N#CC1(c2ccc(NC(=O)c3cccnc3NCc3ccncc3)cc2)CCCC1 [Apatinib] | < 0% |
| Cc1nc(C(=O)NCC(=O)O)c(O)c2ccc(Oc3ccccc3)cc12 | 39.9% |
| O=C(Nc1ccncc1)c1cc([N+](=O)[O-])ccc1Cl | 18.3% |
| c1ccc(CC2=NCCN2)cc1 [Tolazoline HCl] | 21.7% |
| CCCS(=O)(=O)Nc1ccc(F)c(C(=O)c2c[nH]c3ncc(-c4ccc(Cl)cc4)cc23)c1F [Vemurafenib (PLX4032, RG7204)] | 10.2% |
| C[C@H](NC(=O)/C(C#N)=C/c1cccc(Br)n1)c1ccccc1 | 13.5% |
| COc1ccccc1OCCNCC(O)COc1cccc2[nH]c3ccccc3c12 (configuration not stated) [Carvedilol] | 46.6% |
| COc1cc(OC)c(/C=C/S(=O)(=O)Cc2ccc(OC)c(NCC(=O)O)c2)c(OC)c1 | 8.77% |
| N#CC(=C(/N)Sc1ccccc1N)/C(C#N)=C(\N)Sc1ccccc1N | 19.7% |
| C#Cc1cccc(Nc2ncnc3cc(OCCOC)c(OCCO)cc23)c1 | < 0% |

Tested on: KB-V1
Assay: as above
Conditions: 1 µM; 72 h

| SMILES | growth inhibition |
| --- | --- |
| COc1ccc(C2CNC(=O)C2)cc1OC1CCCC1 (configuration not stated) [Rolipram] | 31% |
| COc1ccc([C@H]2CNC(=O)C2)cc1OC1CCCC1 [S- (+)-Rolipram] | 47.7% |
| Nc1nc(CC(=O)Nc2ccc(CCNC[C@H](O)c3ccccc3)cc2)cs1 [Mirabegron] | 4.25% |
| O=C(c1ccc(F)cc1)C1CCN(CCn2c(=O)[nH]c3ccccc3c2=O)CC1 [Ketanserin] | 21.5% |
| CN/C(=N\CCSCc1nc[nH]c1C)NC#N [Cimetidine] | 23.3% |
| Clc1ccc(NN=C(c2ccccc2)c2ccccn2)nc1 | 53.5% |
| COC(=O)N[C@H](C(=O)N1CCC[C@H]1c1ncc(-c2ccc(-c3ccc(-c4cnc([C@@H]5CCCN5C(=O)[C@@H](NC(=O)OC)C(C)C)[nH]4)cc3)cc2)[nH]1)C(C)C | 18% |
| CC(C)OC(=O)C1=CN(C(=O)c2ccc(F)c(F)c2)CC(C)(C)c2c1[nH]c1ccccc21 | < 0% |
| COc1cc2ncnc(Nc3ccc(O)c(Br)c3)c2cc1OC | 14.5% |
| Fc1ccc(C(c2ccc(F)cc2)N2CCN(C/C=C/c3ccccc3)CC2)cc1 [Flunarizine 2HCl] | 15.4% |
| O=C(/C=C/c1ccc(O)c(O)c1)c1ccc(O)cc1O [Butein] | < 0% |
| Cc1ccc(-c2cc(C(F)(F)F)nn2-c2ccc(S(N)(=O)=O)cc2)cc1 [Celecoxib] | 22.3% |
| C[C@@H]1C(=O)O[C@H]2C[C@@]34[C@H]5C[C@@H](C(C)(C)C)[C@]36[C@@H](OC(=O)[C@@H]6O)O[C@@]4(C(=O)O5)[C@]21O [Ginkgolide A] | 14% |
| CNC(=O)c1cc(COc2nnc(Nc3ccc(Cl)cc3)c3ccoc23)ccn1 [Telatinib] | 17.8% |
| Cc1cc(C)nc(NS(=O)(=O)c2ccc(NC(=S)NC(=O)COc3ccc(Br)cc3Cl)cc2)n1 | < 0% |
| CCc1c2c(nc3ccc(O)cc13)-c1cc3c(c(=O)n1C2)COC(=O)[C@]3(O)CC | 77.2% |
| CC(=O)OCC[N+](C)(C)C [Acetylcholine Chloride] | 22.1% |
| CCOc1nc2cccc(C(=O)OCc3oc(=O)oc3C)c2n1Cc1ccc(-c2ccccc2-c2noc(=O)[nH]2)cc1 [Azilsartan Medoxomil] | 7.07% |
| C#Cc1cccc(Nc2ncnc3cc(OC)c(OCCCCCCC(=O)NO)cc23)c1 | 74% |
| CC(C)(Cc1ccc2ccccc2c1)NC[C@@H](O)COc1cccc(Cl)c1C#N | 35.9% |

| SMILES | growth inhibition |
| --- | --- |
| CCOC(=O)c1ccc(N2NC(=O)C(=Cc3ccc([N+](=O)[O-])o3)C2=O)cc1 | 3.19% |
| COc1ccc2cc1Oc1ccc(cc1)C[C@H]1c3cc(c(OC)cc3CCN1C)Oc1c(OC)c(OC)cc3c1[C@H](C2)N(C)CC3 [Tetrandrine] | 40.2% |
| O=C(Nc1cccc(C(F)(F)F)c1)Nc1cc(S(=O)(=O)NC2CC2)ccc1-c1ccsc1 | < 0% |
| COc1cc(F)c(C(C)C)cc1-c1ccc(C(F)(F)F)cc1CN1C(=O)O[C@H](c2cc(C(F)(F)F)cc(C(F)(F)F)c2)[C@@H]1C [Anacetrapib (MK-0859)] | 3.12% |
| CCC(=O)NCC[C@@H]1CCc2ccc3c(c21)CCO3 [Ramelteon] | 32.3% |
| COc1cc(OC)c(NC(=O)Nc2cc(C)on2)cc1Cl | < 0% |
| CS(=O)(=O)c1cccc(CNc2nc(Nc3ccc4c(c3)CCC(=O)N4)ncc2C(F)(F)F)c1 | 21.3% |
| CC[C@H](c1ccc(O)cc1)[C@@H](CC)c1ccc(O)cc1 [Hexestrol] | 13.3% |
| CN(C)Cc1ccc(-c2nc3cccc4c3n2CCNC4=O)cc1 | 32.7% |
| Cc1[nH]c(/C=C2\C(=O)Nc3ccc(S(=O)(=O)Cc4c(Cl)cccc4Cl)cc32)c(C)c1C(=O)N1CCC[C@@H]1CN1CCCC1 | 18.5% |
| N#CC1(c2ccc(NC(=O)c3cccnc3NCc3ccncc3)cc2)CCCC1 [Apatinib] | < 0% |
| Cc1nc(C(=O)NCC(=O)O)c(O)c2ccc(Oc3ccccc3)cc12 | 37.6% |
| O=C(Nc1ccncc1)c1cc([N+](=O)[O-])ccc1Cl | 33.7% |
| c1ccc(CC2=NCCN2)cc1 [Tolazoline HCl] | 37.8% |
| CCCS(=O)(=O)Nc1ccc(F)c(C(=O)c2c[nH]c3ncc(-c4ccc(Cl)cc4)cc23)c1F [Vemurafenib (PLX4032, RG7204)] | 33.7% |
| C[C@H](NC(=O)/C(C#N)=C/c1cccc(Br)n1)c1ccccc1 | 37.5% |
| COc1ccccc1OCCNCC(O)COc1cccc2[nH]c3ccccc3c12 (configuration not stated) [Carvedilol] | 26.5% |
| COc1cc(OC)c(/C=C/S(=O)(=O)Cc2ccc(OC)c(NCC(=O)O)c2)c(OC)c1 | 29.6% |
| N#CC(=C(/N)Sc1ccccc1N)/C(C#N)=C(\N)Sc1ccccc1N | 31.5% |
| C#Cc1cccc(Nc2ncnc3cc(OCCOC)c(OCCO)cc23)c1 | 32.7% |
